{
  "source": "the supplement of paper PMC10338343",
  "note": "± gives the standard deviation. Whole data set: some 3,700 sequences, median “pre-steady-state target cleavage rate” near 0.02, cut for the highest 2% near 0.23. This is a selection; strong and weak results do not stand in their true shares.",
  "data": [
    {"system": "MILI (PIWIL2) piRISC loaded with Kctd7 piRNA (26 nt)", "assay": "pre-steady-state target cleavage rate (min^-1); MIWI and MILI are mouse PIWI proteins and EfPiwi is from a freshwater sponge; tags in brackets are library labels; higher = faster piRNA-guided slicing of the target", "settings": "guide: Kctd7 piRNA 5'p-UGUUAAUCUCUCAGAGAAGGUGACAG; auxiliary factor: 500 nM mouse GTSF1", "method": "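Cleave-'n-Seq: a library of target RNAs (target site embedded in constant flanks, ACAGCATTCCGCGTTAGTGATATCCG... 5' flank; DNA-blocked outside the site) at 0.1 nM was incubated with 1 nM active mouse MILI or MIWI piRISC (synthetic 5'-monophosphorylated piRNA guide) with or without 500 nM mouse GTSF1 at 33 °C for 1 min to 16 h. Uncleaved targets were sequenced and normalised to non-target controls, and the pooled three trials were fitted to a burst-and-steady-state model to give the pre-steady-state cleavage rate (min^-1; k3 is constrained to at most 1e-4). Sequence is the target site only; target names encode pairing extent (gX:gY) and contiguous / 1-mismatch / 2-mismatch / bulge geometry. Fits with R² ≤ 0 are excluded.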", "values": [
      {"sequence": "UAGUGAGUAACCUUCUCUGAGAGAUUAACA", "pre-steady-state target cleavage rate": "0.136 ± 0.011"},
      {"sequence": "UAGUGAGACACCUUCUGUGAGAGAUUAACA", "pre-steady-state target cleavage rate": "0.156 ± 0.014"},
      {"sequence": "UAGUGACUCACCUUCUCUGAGAGUAUUAACA", "pre-steady-state target cleavage rate": "0.108 ± 0.0092"},
      {"sequence": "UAGUGACAGACGUUCUCUGAGAGAUUAAGA", "pre-steady-state target cleavage rate": "0.0102 ± 0.0047"},
      {"sequence": "UAGUGUGUGACCUACUCUGAGAGAUUAACA", "pre-steady-state target cleavage rate": "0.15 ± 0.014"},
      {"sequence": "UAGUGACACACCUUCUCGAGAGAUUAACA", "pre-steady-state target cleavage rate": "0.0266 ± 0.011"},
      {"sequence": "UAGUGUGUCACCUUCUCUGAUGAGAUUAACA", "pre-steady-state target cleavage rate": "0.0585 ± 0.02"},
      {"sequence": "UAGUCUGUGAGCUUCUCUGAGAGAUUAACA", "pre-steady-state target cleavage rate": "0.119 ± 0.0055"},
      {"sequence": "UAGUCUGACAGCUUCUCUGAGAGAUUAACA", "pre-steady-state target cleavage rate": "0.114 ± 0.0076"},
      {"sequence": "UAGUCUGUCACCUUCUCUGAGAGCAUUAACA", "pre-steady-state target cleavage rate": "0.175 ± 0.013"},
      {"sequence": "UAGUGACACACCUACUCUGAGAGAUUAUGA", "pre-steady-state target cleavage rate": "0.00594 ± 0.0034"},
      {"sequence": "UAGUGACAGACCUAUCUCUGAGAGAUUAACA", "pre-steady-state target cleavage rate": "0.0833 ± 0.01"},
      {"sequence": "UAGUGACUCACCUUCUCUGAGAGAUUUAACA", "pre-steady-state target cleavage rate": "0.202 ± 0.017"},
      {"sequence": "UAGUGUGUCACGUUCUCUGAGAGAAUAACA", "pre-steady-state target cleavage rate": "0.0657 ± 0.018"},
      {"sequence": "UAGUCUGUCACCAUCUCUGAGAGUUUAACA", "pre-steady-state target cleavage rate": "0.119 ± 0.021"},
      {"sequence": "UAGUGACACUCCUUCUCUGAGUGAUUAACA", "pre-steady-state target cleavage rate": "0.00415 ± 0.0032"},
      {"sequence": "UAGUGACAGUGCUUAUCUGAGAGAUUAACA", "pre-steady-state target cleavage rate": "0.0166 ± 0.005"},
      {"sequence": "UAGUCUGUCACCUUCUGUGUGAGAUUAACA", "pre-steady-state target cleavage rate": "0.0325 ± 0.0037"},
      {"sequence": "UAGUGUGUCACCUUCUCUGAGAGAUUCAACA", "pre-steady-state target cleavage rate": "0.219 ± 0.038"},
      {"sequence": "UAGUGAGUCUCCUUCUGUGAGAGAUUAACA", "pre-steady-state target cleavage rate": "0.0996 ± 0.017"},
      {"sequence": "UAGUCUGUCACCUUCUCUGAGAAGAUUAACA", "pre-steady-state target cleavage rate": "0.0626 ± 0.01"},
      {"sequence": "UAGUGACAGUCCUUCUCUGAGACAAUAACA", "pre-steady-state target cleavage rate": "< 0.0001"},
      {"sequence": "UAGUGACAGUCCUUCUGUGAGAGAUUUACA", "pre-steady-state target cleavage rate": "0.00912 ± 0.0026"},
      {"sequence": "UAGUGACACACCUUCACUGAGAGAUUAACA", "pre-steady-state target cleavage rate": "0.13 ± 0.0096"},
      {"sequence": "UAGUCUGUCACGAACUCUGAGAGAUUAACA", "pre-steady-state target cleavage rate": "0.0804 ± 0.0054"},
      {"sequence": "UAGUGACACACCUACUCUGAGAGAUUAUCA", "pre-steady-state target cleavage rate": "0.0653 ± 0.015"},
      {"sequence": "UAGUGACUCACCUUCUCUGAGAGAUUCAACA", "pre-steady-state target cleavage rate": "0.221 ± 0.035"},
      {"sequence": "UAGUGACACACCUUCUCUCACAGAUUAACA", "pre-steady-state target cleavage rate": "0.0114 ± 0.0049"},
      {"sequence": "UAGUGUGUCACCUUCACUGAGAGUUUAACA", "pre-steady-state target cleavage rate": "0.0686 ± 0.02"},
      {"sequence": "UAGUGAGUCUGCUUCUCUGAGAGAUUAACA", "pre-steady-state target cleavage rate": "0.0821 ± 0.0062"},
      {"sequence": "UAGUGACACACCUUCUCUCAGAGAUAAACA", "pre-steady-state target cleavage rate": "0.0174 ± 0.0075"},
      {"sequence": "UAGUGACAGACCUUCUCCGAGAGAUUAACA", "pre-steady-state target cleavage rate": "0.0676 ± 0.021"},
      {"sequence": "UAGUCUGACACGUUCUCUGAGAGAUUAACA", "pre-steady-state target cleavage rate": "0.167 ± 0.012"},
      {"sequence": "UAGUCACUCACCUUCUCUGAGAGAUAUUGA", "pre-steady-state target cleavage rate": "0.00509 ± 0.0038"},
      {"sequence": "UAGUGACAGACCUUCUAUGAGAGAUUAACA", "pre-steady-state target cleavage rate": "0.037 ± 0.015"},
      {"sequence": "UAGUGACACACCUUCACUCAGAGAUUAACA", "pre-steady-state target cleavage rate": "0.0278 ± 0.0075"},
      {"sequence": "UAGUCUGUCACCUACUCUGAGAGUUUAACA", "pre-steady-state target cleavage rate": "0.149 ± 0.024"},
      {"sequence": "UAGUGACAGUCGUUCUCUCAGAGAUUAACA", "pre-steady-state target cleavage rate": "0.00831 ± 0.0022"},
      {"sequence": "UAGUGACAGUGGAACUCUGAGUCUUUAACA", "pre-steady-state target cleavage rate": "0.109 ± 0.061"},
      {"sequence": "UAGUGACAGACCAUCUCUGAGAGAUUAAGA", "pre-steady-state target cleavage rate": "0.00579 ± 0.0032"},
      {"sequence": "UAGUCUGUGACCUUCUCUGAGAGAUAAACA", "pre-steady-state target cleavage rate": "0.0621 ± 0.0085"},
      {"sequence": "UAGUCUGAGACCUUCUCUGAGAGAUUAAGA", "pre-steady-state target cleavage rate": "0.0455 ± 0.0084"},
      {"sequence": "UAGUGAGUCACCUACUGUGAGAGAUUAACA", "pre-steady-state target cleavage rate": "0.108 ± 0.0097"},
      {"sequence": "UAGUCUGUCACCUUCUCUUAGAGAUUAACA", "pre-steady-state target cleavage rate": "0.0866 ± 0.0084"},
      {"sequence": "UAGUGACAGUGCUUCUCUGUGAGAUUUACA", "pre-steady-state target cleavage rate": "0.00788 ± 0.0032"},
      {"sequence": "UAGUGACAGACCUUCUGUGAGACAUUAACA", "pre-steady-state target cleavage rate": "0.0225 ± 0.0086"},
      {"sequence": "UAGUCUGUCGACCUUCUCUGAGAGAUUAACA", "pre-steady-state target cleavage rate": "0.0375 ± 0.011"},
      {"sequence": "UAGUGACUCACCUUCUCUGAGAGAUUAAAA", "pre-steady-state target cleavage rate": "0.0677 ± 0.02"},
      {"sequence": "UAGUCUGUCACCUACUGUGAGAGAUUAACA", "pre-steady-state target cleavage rate": "0.079 ± 0.0066"},
      {"sequence": "UAGUGACUCACCUUCUCUGAGAGACUAACA", "pre-steady-state target cleavage rate": "0.112 ± 0.019"},
      {"sequence": "UAGUCUGUCACGUUCUCUGAGAGAUAAACA", "pre-steady-state target cleavage rate": "0.0413 ± 0.0083"},
      {"sequence": "UAGUGACACACCUUGUCUGAGAGAUUAUCA", "pre-steady-state target cleavage rate": "0.0156 ± 0.0081"},
      {"sequence": "UAGUGACAGACCUUCUCUGUGAGAUUAAGA", "pre-steady-state target cleavage rate": "0.0069 ± 0.0047"},
      {"sequence": "UAGUGUGUCACCUUCUCUGAGAGAUAACA", "pre-steady-state target cleavage rate": "0.0605 ± 0.02"},
      {"sequence": "UAGUGUGUCUCCUUCUCUGAGAGAUUUACA", "pre-steady-state target cleavage rate": "0.0178 ± 0.0072"},
      {"sequence": "UAGUGACUCACCUUCACUGAGACAUUAACA", "pre-steady-state target cleavage rate": "0.0588 ± 0.0084"},
      {"sequence": "UAGUCUGUCAGGAUCUCUGAGAGAUUAACA", "pre-steady-state target cleavage rate": "0.0932 ± 0.0052"},
      {"sequence": "UAGUGAGUCACCUUCUCUGAGACAUUAACA", "pre-steady-state target cleavage rate": "0.0977 ± 0.018"},
      {"sequence": "UAGUGACUCACCUACUCUGAGAGAUUAAGA", "pre-steady-state target cleavage rate": "0.0496 ± 0.013"},
      {"sequence": "UAGUCUGUCACCUGUCUCUGAGAGAUUAACA", "pre-steady-state target cleavage rate": "0.179 ± 0.0096"},
      {"sequence": "UAGUCUGUCACCUUCUCUGAGAAAUUAACA", "pre-steady-state target cleavage rate": "0.143 ± 0.018"},
      {"sequence": "UAGUGACAGUGCUUCUCUGAGAGAUUAACC [g2:g19:cont:t1C]", "pre-steady-state target cleavage rate": "0.0223 ± 0.0053"},
      {"sequence": "UAGUGAGUCUGCUUCUCUGAGAGAUUAUGA", "pre-steady-state target cleavage rate": "0.00387 ± 0.0021"},
      {"sequence": "UAGUGACAGUGGUUCUGUGAGAGAUUAACA", "pre-steady-state target cleavage rate": "0.00551 ± 0.0014"},
      {"sequence": "UAGUGUGUCACCUUCUCUGAGAAGAUUAACA", "pre-steady-state target cleavage rate": "0.0498 ± 0.0089"},
      {"sequence": "UAGUGACAGACCUUCUCUGAGAGAUUAAGCA", "pre-steady-state target cleavage rate": "0.0746 ± 0.022"},
      {"sequence": "UAGUGUGUCAGCUUCUCUGAGAGAAUAACA", "pre-steady-state target cleavage rate": "0.112 ± 0.023"},
      {"sequence": "UAGUGAGACACCUUCUCUGAGAGAAUAACA", "pre-steady-state target cleavage rate": "0.0568 ± 0.019"},
      {"sequence": "UAGUGACACACCAUCUCUGACAGAUUAACA", "pre-steady-state target cleavage rate": "0.0227 ± 0.0066"},
      {"sequence": "UAGUGACAGACCUUCUCUGAGAGAUUAUGA", "pre-steady-state target cleavage rate": "0.00603 ± 0.0045"},
      {"sequence": "UAGUCUGACACCUUCUCUGAGAGAUUAUCA", "pre-steady-state target cleavage rate": "0.109 ± 0.014"},
      {"sequence": "UAGUGACAGUGGAAGAGACUGAGAUUCACA", "pre-steady-state target cleavage rate": "< 0.0001"}
    ]}
  ]
}
